Data as given in the BET-seq Pho4 binding data (Le et al. 2018).
The other results are listed elsewhere or left out. These are noisy estimates, calculated here from bound and input reads.

target: T1, Pho4 (S. cerevisiae) (UniProt P07270); assay: relative binding free energy (BET-seq); higher = weaker binding; details: reference: library average
T1 sequence: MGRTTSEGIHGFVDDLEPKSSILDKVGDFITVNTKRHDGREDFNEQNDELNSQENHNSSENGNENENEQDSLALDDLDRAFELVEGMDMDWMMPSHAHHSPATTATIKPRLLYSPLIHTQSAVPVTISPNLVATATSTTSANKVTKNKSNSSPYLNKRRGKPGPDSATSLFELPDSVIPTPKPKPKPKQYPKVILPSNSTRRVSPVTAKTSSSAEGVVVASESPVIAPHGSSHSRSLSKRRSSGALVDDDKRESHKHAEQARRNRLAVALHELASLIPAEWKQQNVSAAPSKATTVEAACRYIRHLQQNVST

Row | Sequence | relative binding free energy
1 | TGATACACGTGTTGAG | 0.05 kcal/mol
2 | GTGTTCACGTGCGCTT | 0.15 kcal/mol
3 | GTACTCACGTGTTAGT | 0.29 kcal/mol
4 | GCCAGCACGTGTGGTG | 0.14 kcal/mol
5 | TCAATCACGTGAGGGT | 0.3 kcal/mol
6 | TTATGCACGTGAGGGA | 0.14 kcal/mol
7 | GGCGGCACGTGTACGT | 0.02 kcal/mol
8 | TATCTCACGTGTTATG | 0.21 kcal/mol
9 | AAGATCACGTGACTGG | 0.44 kcal/mol
10 | GGAATCACGTGATGGA | 0.38 kcal/mol
11 | AGGTGCACGTGGCTTG | -0.17 kcal/mol
12 | TTGGGCACGTGGTGTC | -0.07 kcal/mol
13 | CTGTGCACGTGAAGGT | 0.2 kcal/mol
14 | ATGTTCACGTGTGCGT | 0.35 kcal/mol
15 | TATGACACGTGGGGTG | -0.24 kcal/mol
16 | ATGTTCACGTGGTTGA | 0.32 kcal/mol
17 | GGAATCACGTGAGTTG | 0.17 kcal/mol
18 | TAGGACACGTGGGCCG | -0.02 kcal/mol
19 | GTTTACACGTGGTAAA | 0.06 kcal/mol
20 | TCTAACACGTGTGAGT | 0.14 kcal/mol
21 | GAAGTCACGTGATGGG | 0.39 kcal/mol
22 | GGACTCACGTGTGGAG | 0.31 kcal/mol
23 | ATGTGCACGTGCGGAA | -0.06 kcal/mol
24 | GGTATCACGTGGTCTG | 0.11 kcal/mol
25 | GTAGTCACGTGTAGCG | 0.01 kcal/mol

Row | Sequence | relative binding free energy
26 | GCGGGCACGTGGGGTG | -0.24 kcal/mol
27 | GGGTTCACGTGACGGT | 0.46 kcal/mol
28 | TGTGGCACGTGTTTAC | -0.12 kcal/mol
29 | TGTTACACGTGATTAT | 0.2 kcal/mol
30 | TGGGTCACGTGTATCG | 0.09 kcal/mol
31 | GTGTTCACGTGGATGA | 0.27 kcal/mol
32 | AGGGACACGTGCAGTG | 0.05 kcal/mol
33 | AGGTGCACGTGTTTAG | 0.01 kcal/mol
34 | CTATACACGTGAGTGG | 0.03 kcal/mol
35 | GAGTGCACGTGGGGAC | -0.06 kcal/mol
36 | TGGGGCACGTGTAAGC | -0.01 kcal/mol
37 | TGGTGCACGTGAAAGG | 0.21 kcal/mol
38 | AAATTCACGTGGATTG | 0.28 kcal/mol
39 | AGTTCCACGTGGATGG | 0.04 kcal/mol
40 | TGGGGCACGTGGTCTC | -0.11 kcal/mol
41 | ATGATCACGTGTGTCG | 0.12 kcal/mol
42 | TGAGGCACGTGCGGGG | -0.24 kcal/mol
43 | TTGTACACGTGTTTTA | -0.03 kcal/mol
44 | AGAGTCACGTGTAAGG | 0.34 kcal/mol
45 | GAGCTCACGTGGTGGG | 0.15 kcal/mol
46 | TTATGCACGTGCGAGG | -0.1 kcal/mol
47 | TGAGCCACGTGGTATG | -0.29 kcal/mol
48 | GTACTCACGTGGGTTG | -0.02 kcal/mol
49 | TAGGGCACGTGAACTG | 0.22 kcal/mol
50 | TTCGGCACGTGTATGG | 0.09 kcal/mol

Row | Sequence | relative binding free energy
51 | GCCGGCACGTGGGGTT | -0.11 kcal/mol
52 | TTACTCACGTGGGGTA | 0.05 kcal/mol
53 | CGGTGCACGTGGGTGC | -0.12 kcal/mol
54 | CTGTTCACGTGGTCGT | 0.01 kcal/mol
55 | TCGTTCACGTGTTGGG | 0.36 kcal/mol
56 | TATGCCACGTGTGTGC | -0.1 kcal/mol
57 | GCTGGCACGTGCGGTG | -0.08 kcal/mol
58 | GTGCTCACGTGGCTGG | 0.15 kcal/mol
59 | TATGGCACGTGGTTTC | -0.16 kcal/mol
60 | GACAGCACGTGTTTTG | -0.04 kcal/mol
61 | TGAGCCACGTGATGTG | -0.01 kcal/mol
62 | AGAAGCACGTGTAGTT | -0.04 kcal/mol
63 | AATGCCACGTGTAGTT | -0.04 kcal/mol
64 | TAGTACACGTGTGGCT | 0.14 kcal/mol
65 | CGTAGCACGTGATGTT | -0.13 kcal/mol
66 | TTATCCACGTGGGGAT | -0.2 kcal/mol
67 | GACAGCACGTGGGAGG | -0.14 kcal/mol
68 | CCGTACACGTGGGTGT | -0.11 kcal/mol
69 | CTTATCACGTGTCGGG | 0.34 kcal/mol
70 | TTAGGCACGTGTCTAG | -0.14 kcal/mol
71 | TGAGACACGTGCGTTT | 0.06 kcal/mol
72 | TTTTTCACGTGCTAAG | 0.37 kcal/mol
73 | GTACTCACGTGAGAGG | 0.41 kcal/mol
74 | GTAGACACGTGGGCGC | 0.06 kcal/mol
75 | ATTAGCACGTGCTTTT | -0.03 kcal/mol

Row | Sequence | relative binding free energy
76 | AATACCACGTGGTGGG | -0.22 kcal/mol
77 | CAGGGCACGTGATTGG | -0.05 kcal/mol
78 | TGTATCACGTGATTAA | 0.23 kcal/mol
79 | GTATTCACGTGCAGTG | 0.17 kcal/mol
80 | GGTGACACGTGGTAGT | -0.01 kcal/mol
81 | GTATTCACGTGAGGCA | 0.39 kcal/mol
82 | TGTGGCACGTGACAAT | -0.08 kcal/mol
83 | GGGATCACGTGTGGGC | 0.2 kcal/mol
84 | TTCAACACGTGGGTTA | -0.18 kcal/mol
85 | GGAGTCACGTGTATCG | 0.22 kcal/mol
86 | TATATCACGTGCGTGT | -0.02 kcal/mol
87 | GGTAGCACGTGTTTAC | 0 kcal/mol
88 | TGAGTCACGTGAAGTA | 0.4 kcal/mol
89 | TCAAGCACGTGCGGGG | -0.25 kcal/mol
90 | TTTAACACGTGTAAAG | 0.06 kcal/mol
91 | GGTAGCACGTGATGGC | 0.11 kcal/mol
92 | GAGAACACGTGTGGTT | 0.23 kcal/mol
93 | GGGGGCACGTGTAGCA | -0.1 kcal/mol
94 | GGGGACACGTGACTGT | 0.05 kcal/mol
95 | AGATGCACGTGGAAGG | 0.08 kcal/mol
96 | AGTATCACGTGCAGTT | 0.08 kcal/mol
97 | TAAAGCACGTGGGCTT | -0.2 kcal/mol
98 | GCGGGCACGTGCGGGG | -0.25 kcal/mol
99 | CGTTGCACGTGTAGTG | 0.06 kcal/mol
100 | AGTTACACGTGACGGT | 0.18 kcal/mol

Row | Sequence | relative binding free energy
101 | TTATACACGTGGGAAG | -0.16 kcal/mol
102 | TCTGTCACGTGTGTAA | 0.07 kcal/mol
103 | TAGAGCACGTGGCTGG | -0.18 kcal/mol
104 | CGTATCACGTGTGAAG | 0.23 kcal/mol
105 | CTGAGCACGTGTTTAG | -0.01 kcal/mol
106 | TGTCACACGTGGGGAT | -0.19 kcal/mol
107 | TTCGGCACGTGGTTGG | 0 kcal/mol
108 | AGTGGCACGTGGACAG | -0.19 kcal/mol
109 | AGCGTCACGTGGTGGC | 0.02 kcal/mol
110 | TTAGACACGTGCAAGG | 0.06 kcal/mol
111 | AAGGACACGTGTGTTC | 0.18 kcal/mol
112 | TTTTTCACGTGGCGCA | 0.42 kcal/mol
113 | GGTAACACGTGTAGCT | 0.22 kcal/mol
114 | TGTTGCACGTGCAGTG | 0.04 kcal/mol
115 | CGGGACACGTGGTGCG | 0 kcal/mol
116 | TGTGCCACGTGTCGGC | 0.02 kcal/mol
117 | TAGATCACGTGGGTGA | -0.07 kcal/mol
118 | GGCATCACGTGTTTGT | 0.16 kcal/mol
119 | CTTGTCACGTGGTGTG | 0.01 kcal/mol
120 | GGGTCCACGTGTATTG | 0.04 kcal/mol
121 | CTAGTCACGTGAATTT | 0.32 kcal/mol
122 | TTGCTCACGTGTTAGG | 0.22 kcal/mol
123 | GGGAACACGTGGGTAA | 0.04 kcal/mol
124 | GGTTCCACGTGATGGG | 0.29 kcal/mol
125 | GAAGGCACGTGGTTAT | -0.08 kcal/mol

Row | Sequence | relative binding free energy
126 | GTTGGCACGTGTTAAG | 0.02 kcal/mol
127 | TAATACACGTGCGTGG | -0.04 kcal/mol
128 | TTTGACACGTGGCGGA | -0.07 kcal/mol
129 | GGCTGCACGTGGCGGG | -0.07 kcal/mol
130 | TGTATCACGTGTGGGC | 0.16 kcal/mol
131 | AGAAACACGTGGTGTG | -0.08 kcal/mol
132 | CATAGCACGTGTTGGT | 0.08 kcal/mol
133 | ATTCTCACGTGATGGA | 0.24 kcal/mol
134 | AGGTTCACGTGGGTTC | 0.17 kcal/mol
135 | GTTTTCACGTGGGCGC | 0.33 kcal/mol
136 | GCTTGCACGTGAGTGG | 0.15 kcal/mol
137 | GGCGACACGTGAGTTG | 0.35 kcal/mol
138 | AGGGGCACGTGTCTGT | -0.16 kcal/mol
139 | AAATTCACGTGGCGGT | 0.19 kcal/mol
140 | GCCGGCACGTGGGGAG | -0.15 kcal/mol
141 | TATGACACGTGCAGGG | -0.05 kcal/mol
142 | ATGTGCACGTGAGGAC | 0.11 kcal/mol
143 | GGTCACACGTGTGAGT | 0.22 kcal/mol
144 | GCTGGCACGTGAGATG | 0.17 kcal/mol
145 | GGTGCCACGTGCGGTT | -0.19 kcal/mol
146 | CAAATCACGTGTGGTA | 0.27 kcal/mol
